From the RNAGym collection of RNA variant scans (doi:10.7554/elife.90254) come the findings set out here.

The labels stand for the following.
B1: OR4K15 (parent)
chain: GUUAACGGUCAUAGGCCAUGGAAACUAGGAGCACCAUUUCGCUGCCAGUGAAGAAAUGAACAAAGAAAAUCUGGGCCAGGCAGGCAUCAAAAGAAAUAGUCUUGCGCUCAACCAGAAAGUCUGUAAUCAUUUUAAGGGUA

The source gives no read counts; variants with many changes may rest on few reads.

The variants in this data set derive from B1. The data set is described as follows: self-cleavage, relative activity (ratio to wild type); higher = more cleavage; in vitro, sequencing; the parent is a self-cleaving ribozyme.
GUUAACGGUCAUAGGCCAUGGAAACUAGGAGCACCAUUUCGCUGCCAGUGGAGAAAUGAACGAAGAAAAUCUGGGCCAGGCAGGCAUCAAAAGAAAUAGUCUUGCGCACAACCAGAAAGUCUGUAAUCAUUUUAAGGGUA [A51G A62G U108A]: the self-cleavage is 0.04.

GUUAACGGUCAUAGGCCAUGGAAACUAGGAGCACCAUUUCGCUGCCAGUGGAGAAAUGAACAAAGGAAAUCUGGGCCAGGCAGGCAUCAAAAGAAAUAGUCUUGCGCUCAACCAGAAAGUCUGUAAUCAUUUUAAGGGUG [A51G A66G A140G]: the self-cleavage is 1.41. The same measure for GUUAACGGUCAUAGGCCAUGGAAACUAGGAGCACCAUUUCGCUGCCAGUGGAGAAAUGAACGAAGAAAAUCUGGGCCAGGCAGGCAUCAAGAGAAAUAGUCUUGCGCUCAACCAGAAAGUCUGUAAUCAUUUUAAGGGUA [A51G A62G A91G]: 1.44; for GUUAACGGUCAUAGGCCAUGGAAACUAGGAGCACCAUUUCGCUGCCAGUGGAGAAAUGAACGAAGAAAAUCUGGGCCAGGCAGGCAUCAAAAGAAAUAGUCUUGCGCUCAACCAGAGAGUCUGUAAUCAUUUUAAGGGUA [A51G A62G A117G]: 1.61. Regarding GUUAACGGUCAUAGGCCAUGGAAACUAGGAGCACCAUUUCGCUGCCAGUGGAGAAAUGAACAAAGAGAAUCUGGGCCAGGCAAGCAUCAAAAGAAAUAGUCUUGCGCUCAACCAGAAAGUCUGUAAUCAUUUUAAGGGUA [A51G A67G G83A], the self-cleavage is 1.77.

As for GUUAACGGUCAUAGGCCAUGGAAACUAGGAGCACCAUUUCGCUGCCAGUGGAGAAAUGAACGAAGAAAAUCUGGGCCAGGCAGGCAUCAAAAGAAAUAGUCUUGCGCUCAGCCAGAAAGUCUGUAAUCAUUUUAAGGGUA [A51G A62G A111G], the self-cleavage was 0.02. As for GUUAACGGUCAUAGGCCAUGGAAACUAGGAGCACCAUUUCGCUGCCAGUGGAGAAAUGAACAGAGAAAAUCUGGGCCAGGCAGGCAUCUAAAGAAAUAGUCUUGCGCUCAACCAGAAAGUCUGUAAUCAUUUUAGGGGUA [A51G A63G A89U A135G], the figure is 1.32; as for GUUAACGGUCAUAGGCCAUGGAAACUAGGAGCACCAUUUCGCUGCCAGUGGAGAAAUGAACAAAGAGAAUCUGGGCCAGGCUGGCAUCAAAAGAAAUAGUCUUGCGCUCAACCAGAAAGUCUGUAAUCAUUUUAAGGGUA [A51G A67G A82U], 0.26.

With GUUAACGGUCAUAGGCCAUGGAAACUAGGAGCACCAUUUCGCUGCCAGUGGAGAAAUGAACGAAGAAAAUCUGGGCCAGGCGGGCAUCAAAAGAAAUAGUCUUGCGCUCAACCAGAGAGUCUGUAAUCAUUUUAAGGGUA [A51G A62G A82G A117G], the self-cleavage amounted to 0.45.

As for GUUAACGGUCAUAGGCCAUGGAAACUAGGAGCACCAUUUCGCUGCCAGUGGAGAAAUGAACGAAGAUAAUCUGGGCCAGGCAGGCAUCAAAAGAAAUCGCCUCGCGCUCAACCAGAAAGUCUGUAAUCAUUUUAAGGGUA [A51G A62G A67U A98C U100C U103C], the self-cleavage was 2.61. Consider GUUAACGGUCAUAGGCCAUGGAAACUAGGAGCACCAUUUCGCUGCCAGUGGAGAAAUGAACAAAGGAAAUCUGGGCCUGGCAGGCAUCAAAAGAAAUAGUCUUGCGCUCAACCAGAAAGUCUGUAAUCAUUUUAAGGGUA [A51G A66G A78U], for which the self-cleavage was 0.66. Turning to GUUAACGGUCAUAGGCCAUGGAAACUAGGAGCACCAUUUCGCUGCCAGUGGAGAAAUGAACGAAGAAAAUCUGGGCCAGGCAGGCAUCAAAAGGAAUAGUCUCGCGCUCAACCAGAAAGUCUGUAAUCAUUUUAAGGGUA [A51G A62G A94G U103C], the self-cleavage was found to be 0.63. As for GUUAACGGUCAUAGGCCAUGGAAACUAGGAGCACCAUUUCGCUGCCAGUGGAGAAAUGAACAAAGAGAAUCUGGGCCAGGCAGGCAUCAAAAGAAAUAGUCUUGGGCUCAACCAGAAAGUCUGUAAUCAUUUUAAGGGUA [A51G A67G C105G], the figure is 0.05. On to GUUAACGGUCAUAGGCCAUGGAAACUAGGAGCACCAUUUCGCUGCCAGUGGAGAAAUGAGCAAAGAAAAUCUGGGCCAGGCAGGCAUCAAAAGAAAUUGUCUUGCGCUCAACCAGAAAGUCUGUAAUCAUUUUAAGGGUA [A51G A60G A98U], for which the self-cleavage was 1.71. The same measure for GUUAACGGUCAUAGGCCAUGGAAACUAGGAGCACCAUUUCGCUGCCAGUGGAGAAAUGAACAGAGAAAAUCUGGGCCGGGCAGGCAUCAAAAGAAAUAGUCUUGCGCUCAACCAGGAAGUCUGUAAUCAUUUUAAGGGUA [A51G A63G A78G A116G]: 0.23; for GUUAACGGUCAUAGGCCAUGGAAACUAGGAGCACCAUUUCGCUGCCAGUGGAGAAAUGAGCAAAGAAAAUCUGGGCCAGGCAGGCAUCAAAAGAAAUAGUCUUGCGCUCAACCAGAAAGUCAGUAAUCAUUUUAAGGGUA [A51G A60G U122A]: 0.58. As to GUUAACGGUCAUAGGCCAUGGAAACUAGGAGCACCAUUUCGCUGCCAGUGGAGAAAUGAACAAGGAAAUUCUGGGCCAGGCAGGCGUCAAAAGAAAUAGUCUUGCGCUCAACCAGAAAGUCUGUAAUCAUUUUAAGGGUA [A51G A64G A69U A86G], the self-cleavage was 0.92. GUUAACGGUCAUAGGCCAUGGAAACUAGGAGCACCAUUUCGCUGCCAGUGGAGAAAUGAACAAAGGAAAUCUGGGCCAGGCAGGCAUCAAAAGAAAUAGUCUUGCGCUCAACAAGAAAGUCCGUAAUCAUUUUAAGGGUA [A51G A66G C113A U122C]: the self-cleavage worked out at 0.05. In the case of GUUAACGGUCAUAGGCCAUGGAAACUAGGAGCACCAUUUCGCUGCCAGUGGAGAAAUGAACAGAGAAAAUCUGGGCCAGGCAGGCAUCAAAAGAAAUAGUCUUGCGCUCAACCAGAAAGUCUGUAAUCAUUUUGAGGGUA [A51G A63G A134G], the self-cleavage was determined as 2.1. Consider GUUAACGGUCAUAGGCCAUGGAAACUAGGAGCACCAUUUCGCUGCCAGUGGAGAAAUGAACAAGGAAGAUCUGGGCCAGGCAGGCGUCAAAAGAAAUAGUCUUGCGCUCAACCAGAAAGUCUGUAAUCAUUUUAAGGGUA [A51G A64G A68G A86G], for which the self-cleavage is 1.13.

Regarding GUUAACGGUCAUAGGCCAUGGAAACUAGGAGCACCAUUUCGCUGCCAGUGGAGAAAUGAACAAAGGAAAUCUGGGCCAGGCAGGCAUCAAAAGAAGUAGUCUUGCGCUCAACCAGAAAGUCUGUAAUCAUUUUAAGGGUA [A51G A66G A96G], the self-cleavage stood at 0.21.
